# Measured values from PubChem BioAssay AID493035 (The Scripps Research Institute Molecular Screening Center, 2011).
# Where “and” joins values, the source holds several entries; their conditions need not be identical. Identical values can stand only once. In all, about 2,000 compounds went through this assay and about 45 (2%) were called active.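 How the source made its calls: active means inhibition above the mean of all tested compounds plus 3 SD (cut at about 49% in these data); inactive means the rest.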 The list shows a part of the results.
# Target: Perilipin-5 (Homo sapiens) + 1-acylglycerol-3-phosphate O-acyltransferase ABHD5 (Homo sapiens) (UniProt Q00G26+Q8WTS1)
# Test: blockers of ABHD5 binding to perilipin-5 – cell lysate, split luciferase complementation, luminescence, NIH validation set, pilot screen (AID 493035);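 further: 0% = DMSO only wells while the 100% control is not stated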
# Conditions: split G. princeps luciferase complementation, lysates, 4 h; at 7.9 µM, active compounds read high
# Sequence of UniProt Q00G26 (Q00G26 whole entry, looked up): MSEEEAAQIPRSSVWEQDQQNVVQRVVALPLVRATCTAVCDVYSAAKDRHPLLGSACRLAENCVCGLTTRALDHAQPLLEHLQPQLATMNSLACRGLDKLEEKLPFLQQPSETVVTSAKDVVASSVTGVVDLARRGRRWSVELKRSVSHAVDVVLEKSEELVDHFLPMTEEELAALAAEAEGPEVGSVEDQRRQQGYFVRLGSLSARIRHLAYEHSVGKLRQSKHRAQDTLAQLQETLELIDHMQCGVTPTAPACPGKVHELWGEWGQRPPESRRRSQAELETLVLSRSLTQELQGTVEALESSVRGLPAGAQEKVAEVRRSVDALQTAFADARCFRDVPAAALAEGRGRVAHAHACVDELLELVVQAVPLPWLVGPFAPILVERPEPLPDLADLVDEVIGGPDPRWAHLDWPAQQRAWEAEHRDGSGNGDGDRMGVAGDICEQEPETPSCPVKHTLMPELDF
# Sequence of UniProt Q00G26 (Q8WTS1 whole entry, looked up): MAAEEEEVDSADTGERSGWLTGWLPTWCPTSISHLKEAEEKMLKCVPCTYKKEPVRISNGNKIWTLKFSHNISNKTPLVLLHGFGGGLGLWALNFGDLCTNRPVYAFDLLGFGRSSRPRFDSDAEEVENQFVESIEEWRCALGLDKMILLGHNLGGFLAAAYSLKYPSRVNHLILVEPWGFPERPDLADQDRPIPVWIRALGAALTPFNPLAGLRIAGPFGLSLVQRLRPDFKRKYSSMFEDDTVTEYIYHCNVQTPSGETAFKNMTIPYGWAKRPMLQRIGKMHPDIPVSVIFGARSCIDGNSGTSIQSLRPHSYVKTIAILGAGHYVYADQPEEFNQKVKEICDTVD
row,SMILES,inhibition
1,O=C(N/N=C\c1cc([N+](=O)[O-])ccc1N1CCOCC1)c1ccccn1,inactive: 1.87%
2,Cc1cn([C@H]2C=C[C@@H](CO)O2)c(=O)[nH]c1=O,inactive: -0.42%
3,CCOc1ccc(C(=O)N2CCCC2C(=O)O)cc1 (stereo not given),inactive: -2.92%
4,CC(=O)NS(=O)(=O)c1ccc(N)cc1,inactive: 7.18%
5,O=C1CC(c2ccc(O)cc2)Oc2cc(O)cc(O)c21 (stereo not given),inactive: -10.9%
6,Cn1cc(CN2CCCC(CO)(Cc3cccc(Cl)c3)C2)cn1 (stereo not given),inactive: -10.5%
7,CCOC(=O)COc1ccc2c(=O)c(-c3ccccc3)coc2c1,inactive: -0.22%
8,NC(N)=NC(=O)c1nc(Cl)c(N)nc1N,inactive: 5.53%
9,COc1ccc(Cc2noc(CN(C)CCN3CCc4ccccc4C3)n2)cc1OC,inactive: -5.39%
10,CC(=O)CCc1oc2ccccc2c1-c1ccccc1,inactive: -0.95%
11,CC(C)C12CN3CC(C(C)C)(CN(C1)C31C(=O)Nc3ccccc31)C2=O (stereo not given),inactive: -5.17%
12,CC(=O)CSc1ncnc2c1cnn2-c1ccccc1,inactive: 8.43%
13,CCN(CC)CC(=O)Nc1c(C)cccc1C,inactive: -0.3% and inactive: 2.05%
14,COc1ccc(C(=O)CC2OC(=O)c3c2ccc(OC)c3OC)cc1 (stereo not given),inactive: 1.87%
15,CC(=O)OCC(=O)[C@@]12OC(C)(C)O[C@@H]1C[C@H]1[C@@H]3C[C@H](F)C4=CC(=O)C=C[C@]4(C)[C@@]3(F)[C@@H](O)C[C@@]12C,inactive: 1.9%
16,COc1ccc(/C=C\c2cc(OC)c(OC)cc2CC[N+](C)(C)C)cc1OC,inactive: -2.45%
17,c1ccc2c(CC3=NCCN3)cccc2c1,inactive: -3.21%
18,COc1ccc(C(=O)NC(=O)NC2(C(Cl)(Cl)Cl)OCCO2)cc1,inactive: -14.8%
19,Cc1ccc(CSCC(=O)NCCCN2CCOCC2)cc1,inactive: 2.33%
20,O=[N+]([O-])c1ccc2cn[nH]c2c1,inactive: -0.39%
21,CC(=O)C1=C(Nc2ccc(C)cc2)CC(C)(O)C(C(C)=O)C1c1ccco1 (stereo not given),inactive: 13.9%
22,CCn1c(=N)c(C(=O)NC)cc2c(=O)n3cccc(C)c3nc21,inactive: -14.8%
23,CC(C)C12CN3CC(C(C)C)(CN(C1)C3c1ccccc1)C2O (stereo not given),inactive: -7.93%
24,OCCN(CCO)c1nc(N2CCCCC2)c2nc(N(CCO)CCO)nc(N3CCCCC3)c2n1,inactive: 9.95%

row,SMILES,inhibition
1,Cc1ccc(C2CC(=O)C(C=NCCN3CCN(CC(=O)Nc4cc(C)cc(C)c4)CC3)=C(O)C2)cc1 (stereo not given),inactive: -1.4%
2,O=C(O)c1ccc(-c2ccc(O)c(F)c2)cc1,inactive: -3.97%
3,Cc1cc(=O)oc2c(CN(C)Cc3ccccc3)c(O)ccc12,inactive: -4.14%
4,NC(=O)C1CCCNC1 (stereo not given),inactive: -20.4%
5,CC(C)COC(=O)C1C(=O)CC(C)(O)C(C(=O)OCC(C)C)C1c1cccnc1 (stereo not given),inactive: 1.33%
6,CCCCOn1c(C)c(C(C)=O)c2c3no[n+]([O-])c3ccc21,inactive: -1.85%
7,Nc1nc(Cl)nc2c1ncn2[C@@H]1O[C@H](CO)[C@@H](O)[C@H]1O,inactive: -3.55%
8,CCOC(=O)c1oc2cc(O)cc(C)c2c(=O)c1-c1cscn1,inactive: 0.62%
9,COc1ccc(N2C(=O)C3C(C2=O)C(C(=O)c2ccccc2)N2CCCC32)cc1 (stereo not given),inactive: 21.4%
10,COc1cccc(C2CCCN2Cc2nc(CCC(C)C)no2)c1 (stereo not given),inactive: -10.5%
11,O=C1N[C@@H](Cc2cnc[nH]2)C(=O)N2CCC[C@@H]12,inactive: -13.3%
12,C[C@@H]1C[C@H]2[C@@H]3CCC4=CC(=O)C=C[C@]4(C)[C@@]3(F)[C@@H](O)C[C@]2(C)[C@@]1(O)C(=O)COP(=O)(O)O,inactive: -13.3%
13,CC(=O)C1=C(NC(=O)c2ccc(C(F)(F)F)cc2)C[C@@H]2[C@H]1C2(C)C,inactive: -15.1%
14,COc1ccc(CC(=O)Nc2cccc(C(=O)Nc3ccccc3C(=O)O)c2)cc1OC,inactive: 0.92%
15,CC(C)(C)N1NC2(CCCCC2)NC1=S,inactive: 6.12%
16,O=C(O)C1CSC(c2ccco2)N1 (stereo not given),inactive: 26.7%
17,COc1ccc(-c2cc(=O)oc3cc(OC(C)C(=O)O)ccc23)cc1 (stereo not given),inactive: 1.1%
18,Cc1c(Cc2ccccc2)c(=O)oc2c(CN(C)C)c(O)c(Cl)cc12,inactive: 9.82%
19,CC(C)CC(NC(=O)CNC(=O)C1O[C@@H]2OC(C)(C)O[C@@H]2[C@H]2OC(C)(C)O[C@@H]12)C(=O)O (stereo not given in full),inactive: 5.95%
20,COC(=O)[C@H]1[C@H]2C[C@@H]3c4[nH]c5cc(OC)ccc5c4CCN3C[C@H]2C[C@@H](OC(=O)c2ccc(N)cc2)[C@@H]1OC,inactive: 26.7%
21,COc1ccc2c(C=O)cn(C)c2c1,inactive: -3.79%
22,CSCC[C@H](NC(=O)NC1CCCC1)C(=O)O,inactive: 3.47%
23,CC1(C)NC(C(=O)O)Cc2c1[nH]c1ccccc21 (stereo not given),inactive: -10.4%
24,COc1ccc2cc(-c3nc4ccccc4n3C)c(=O)oc2c1,inactive: -5.19%

row,SMILES,inhibition
1,O=C(Nc1ccccc1)OCC1CCCN2CCCCC12 (stereo not given),inactive: -3.5%
2,COc1cc(C2C(C(C)=O)=C(O)C(=O)N2c2ccc(C)cc2)ccc1O (stereo not given),inactive: 1.35%
3,CC(C)=CCC/C(C)=C/CC/C(C)=N/O,inactive: -2.69%
4,COC(=O)C1[C@H]2C(=O)N(Cc3cccs3)C[C@]23C=C[C@H]1O3 (stereo not given in full),inactive: -1.7%
5,CC(C)OC(=O)C(C)(C)Oc1ccc(C(=O)c2ccc(Cl)cc2)cc1,inactive: -6.77%
6,CC(C)NC(=O)C1(c2ccccc2)CCOCC1,inactive: -1.27%
7,COc1cccc(/C=C/C(=O)c2c(O)cc(C)oc2=O)c1O,inactive: 44.4%
8,COc1ccccc1/C=C/C(=O)c1c2c(c(C)[nH]c1=O)CCCC2,inactive: 40.9%
9,CCN1C(=O)C(CC(=O)Nc2ccc(F)cc2)N(Cc2ccc3c(c2)OCO3)C1=S (stereo not given),inactive: -0.32%
10,CN(C)CCOc1ccc(Cl)cc1C(C)(C)C,inactive: -8.58%
11,CC(=O)c1c(C)[nH]c(C(=O)OCc2ccccc2)c1C,inactive: -8.43%
12,CCc1cc(=O)oc2cc(C)c(CN3CCCC(C)C3)c(O)c12 (stereo not given),inactive: 15.1%
13,COC(=O)CCC(=O)CN,inactive: 1.69%
14,N#C/C(=C\c1ccc(O)c(O)c1)C(=O)NCCCc1ccccc1,inactive: 28.2%
15,COc1ccc(-c2[nH]ncc2CN(CCO)Cc2cccs2)c(F)c1,inactive: -7.6%
16,CCOC(=O)C1CCCN(Cc2nc(Cc3cccc(F)c3)no2)C1 (stereo not given),inactive: -2.87%
17,CCOc1ccc(C(=O)NCC2(c3ccccc3)CCOCC2)cc1,inactive: 0.52%
18,CCOc1ccc2nc(S(N)(=O)=O)sc2c1,inactive: -10.3%
19,Nc1ccc(N)c(C(=O)O)c1,inactive: -0.31%
20,CN1CCCN(C(c2ccccc2)c2ccc(Cl)cc2)CC1 (stereo not given),inactive: -1.84%
21,O=C(O)c1ccccc1O,inactive: -3.25%
22,CCNCCC(CCC(C)C)c1ccc2c(c1)OCO2 (stereo not given),inactive: 2.05%
23,C/C(NC(=O)c1cccs1)=C1\C(=O)C[C@@H]2[C@H]1C2(C)C,inactive: 4.33%
24,O=P(c1ccccc1)(c1ccccc1)c1nc(-c2ccc(Cl)cc2)oc1N1CCOCC1,inactive: -3.77%

row,SMILES,inhibition
1,Cc1cc(/C=N/O)c(C)n1-c1ccc(Br)cc1,inactive: 9.12%
2,Cc1cc(O)c2/c(=N\N)c(-c3csc(C)n3)coc2c1,inactive: 9.92%
3,CC1(C)S[C@@H]2[C@H](NC(=O)[C@H](N)c3ccccc3)C(=O)N2[C@H]1C(=O)O,inactive: -3.69% and inactive: -5.4%
4,CC(=O)NCCCC(=O)NC(CCC(=O)OCc1ccccc1)C(=O)OCc1ccccc1 (stereo not given),inactive: -3.63%
5,O=c1n(CCCN2CCN(c3cccc(Cl)c3)CC2)nc2ccccn12,inactive: -2.45%
6,CC12CCC(C(=O)NNc3ccccc3)(C(=O)C1=O)C2(C)C (stereo not given),inactive: 10.3%
7,OC12CCCCC1C(c1ccc3c(c1)OCO3)N(Cc1cccc(F)c1)CC2 (stereo not given),inactive: -7.02%
8,CC(=O)O[C@H]1CC[C@H]2[C@@H]3CCc4cc(O)ccc4[C@H]3CC[C@]12C,inactive: 9.68%
9,CCCCCCCC(=O)OCC(O)CO (stereo not given),inactive: -0.46%
10,O=C(Nc1ccc(Oc2c(F)c(F)c(F)c(F)c2F)cc1)OC1CCN2Cc3ccccc3N=C12 (stereo not given),active: 69.3%
11,COc1ccc(-c2cc3cc(OC)c(OC)cc3c(C)n2)cc1,inactive: -6.39%
12,Cc1ncc([N+](=O)[O-])n1CC(C)O (stereo not given),inactive: -2.38%
13,C/C=C(/C(=C/C)c1ccc(O)cc1)c1ccc(O)cc1,inactive: 8.35%
14,O=[N+]([O-])c1cc(/C=N/n2cnnc2)ccc1N1CCCC1,inactive: 4.2%
15,COc1ccc2cc([C@H](C)C(=O)O)ccc2c1,inactive: -4.01%
16,CCN(CC)c1ccc(C2=NNC(=O)CC2C)cc1[N+](=O)[O-] (stereo not given),inactive: -10.9%
17,C[C@@H]1C[C@H](Nc2ccccc2)c2ccccc2N1C(=O)c1cccnc1,inactive: -13.3%
18,Oc1[nH]c2ccccc2c1C1=NCCCC1,inactive: -9.5%
19,C=C(C)[C@@H]1CC=C(CN2CCC(N3CCC(C(=O)N4CCCC4)CC3)CC2)CC1,inactive: -9.03%
20,COc1cc2c(cc1NCc1ccc3c(c1)OCO3)oc1ccccc12,inactive: -2.26%
21,COc1ccc(-c2noc(CCc3ccccc3)n2)cc1,inactive: -10.1%
22,CC(C)C[C@H](NC(=O)[C@@H]1Cc2ccccc2CN1C(=O)OC(C)(C)C)C(=O)NCC1CCC(C(=O)O)CC1 (stereo not given in full),inactive: -1.68%
23,COC(=O)c1ccc(=O)n(Cc2ccco2)c1,inactive: 18.6%
